Numbering of substitutions follows the chain as printed; changes in the protein carry UniProt numbers. The list shows a part of the results.

Our source for the binding signal values is paper PMC9911399, “Two distinct binding modes provide the RNA-binding protein RbFox with extraordinary sequence specificity”.

Sequences and labels used below:
T1: RBFOX1 RRM RbFoxmut (Fox-RRM*) (Homo sapiens, UniProt Q9NWB1 109-208, R118D;E147R;N151S;E152T)
T1 sequence: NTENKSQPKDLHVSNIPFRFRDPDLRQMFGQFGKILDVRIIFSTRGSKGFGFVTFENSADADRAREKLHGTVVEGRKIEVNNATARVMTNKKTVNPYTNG

B1: UAUCCAU (DNA:RNA)
RNA: GGGAGACCGGAAUUCAGAUUGUCCUAUCCAUUUAAAUCCCGUCGUAGCCACCA
DNA 1: CAATCTGAATTCCGGTCTCCC
DNA 2: TGGTGGCTACGACGGGATT
B2: AGGUACG (DNA:RNA)
RNA: GGGAGACCGGAAUUCAGAUUGUCCAGGUACGUUAAAUCCCGUCGUAGCCACCA
DNA 1: CAATCTGAATTCCGGTCTCCC
DNA 2: TGGTGGCTACGACGGGATT
B3: UCGGCGG (DNA:RNA)
RNA: B2 RNA with A25U, G26C, U28G, A29C, C30G
DNA 1: CAATCTGAATTCCGGTCTCCC
DNA 2: TGGTGGCTACGACGGGATT
B4: CGGGAAG (DNA:RNA)
RNA: B2 RNA with A25C, U28G, C30A
DNA 1: CAATCTGAATTCCGGTCTCCC
DNA 2: TGGTGGCTACGACGGGATT
B5: AGAACGG (DNA:RNA)
RNA: B2 RNA with G27A, U28A, A29C, C30G
DNA 1: CAATCTGAATTCCGGTCTCCC
DNA 2: TGGTGGCTACGACGGGATT
B6: UCAACAU (DNA:RNA)
RNA: B1 RNA with A26C, U27A, C28A
DNA 1: CAATCTGAATTCCGGTCTCCC
DNA 2: TGGTGGCTACGACGGGATT
B7: UAAAUAA (DNA:RNA)
RNA: B1 RNA with U27A, C28A, C29U, U31A
DNA 1: CAATCTGAATTCCGGTCTCCC
DNA 2: TGGTGGCTACGACGGGATT
B8: CUUACCC (DNA:RNA)
RNA: B1 RNA with U25C, A26U, C28A, A30C, U31C
DNA 1: CAATCTGAATTCCGGTCTCCC
DNA 2: TGGTGGCTACGACGGGATT
B9: UAUAAGA (DNA:RNA)
RNA: B1 RNA with C28A, C29A, A30G, U31A
DNA 1: CAATCTGAATTCCGGTCTCCC
DNA 2: TGGTGGCTACGACGGGATT

The assay addresses T1, RBFOX1 RRM RbFoxmut (Fox-RRM*). In words: EMSA; HiTS-Eq, 1 nM pool, 10 min; buffer printed only for the single-RNA assays: 10 mM Tris pH 7.5, 150 mM NaCl, 3.4 mM EDTA, 0.001% NP-40, 30 C. The following applies: tags: His6 N-terminal (pET28a); label: 5' 32P. In short, it runs like this:
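These values rest on relative association constants, computed from read-count changes of each RNA species versus the control reaction and normalised to the cognate motif. Reads came from free RNA recovered by 8% native PAGE after purified RbFox RRM (wild type or mutant) at increasing concentrations was equilibrated for 10 min in 50 µL with 1 nM of a 5′-radiolabelled pool with 7 randomized nucleotides and DNA-annealed flanks.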
Take B1: the binding signal is 0.0794 KA relative to UGCAUGU.
Next, B2: 0.258 KA relative to UGCAUGU; B3: 0.109 KA relative to UGCAUGU.
For the molecule B4, the binding signal was 0.106 KA relative to UGCAUGU.
For the molecule B5, the binding signal is 0.159 KA relative to UGCAUGU.
Next, B6: 0.0815 KA relative to UGCAUGU; B7: 0.0779 KA relative to UGCAUGU.
For the molecule B8, the binding signal is 0.078 KA relative to UGCAUGU.
On to B9, for which the binding signal was 0.0718 KA relative to UGCAUGU.
